# Source: the supplement of paper PMC8728848
# This is one part of the list.
# What was measured:
# Test in all cases: glycan array binding signal (z-score within array); higher = stronger binding
# Conditions in all cases: glycan notation: IUPAC condensed, linker removed
# [1] = molecular target: Gal6P(b1-4)GlcNAc
# How it was run: (§1)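 Negative Z-scores can be read as non-binding. The Z-score is calculated within each array and then averaged across arrays of one protein sequence at different concentrations or buffers and across linkers. Arrays, 3228 in all, were curated from the Consortium for Functional Glycomics database and kept only where the protein sequence was available.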
# [2] = molecular target: Gal6S(b1-3)GlcNAc
# How it was run: as §1
# [3] = molecular target: Gal6S(b1-3)GlcNAc6S
# How it was run: as §1
# [4] = molecular target: Gal6S(b1-4)Glc
# How it was run: as §1
# [5] = molecular target: Gal6S(b1-4)Glc6S
# How it was run: as §1
# [6] = molecular target: Gal6S(b1-4)GlcNAc
# How it was run: as §1
# [7] = molecular target: Gal6S(b1-4)GlcNAc6S
# How it was run: as §1
# [8] = molecular target: GalNAc(a1-3)Gal
# How it was run: as §1
# [9] = molecular target: GalNAc(a1-3)GalNAc
# How it was run: as §1
# [10] = molecular target: GalNAc(a1-3)GalNAc(a1-3)Gal(a1-4)Gal(b1-4)GlcNAc
# How it was run: as §1
# [11] = molecular target: GalNAc(a1-3)GalNAc(b1-3)Gal(a1-4)Gal(b1-4)Glc
# How it was run: as §1
# [12] = molecular target: GalNAc(b1-3)Gal
# How it was run: as §1
# [13] = molecular target: GalNAc(b1-3)Gal(a1-4)Gal(b1-4)GlcNAc
# How it was run: as §1
# [14] = molecular target: GalNAc(b1-3)Gal(a1-4)Gal(b1-4)GlcNAc(b1-3)Gal(b1-4)Glc
# How it was run: as §1
# [15] = molecular target: GalNAc(b1-3)Gal(a1-6)Gal(b1-4)Glc
# How it was run: as §1
# [16] = molecular target: GalNAc(b1-3)GalNAc
# How it was run: as §1
# [17] = molecular target: GalNAc(b1-3)GlcNAc
# How it was run: as §1
# [18] = molecular target: GalNAc(b1-4)Gal(b1-4)Glc
# How it was run: as §1
# [19] = molecular target: GalNAc(b1-4)GlcNAc
# How it was run: as §1
# [20] = molecular target: GalNAc(b1-4)GlcNAc(b1-2)Man
# How it was run: as §1
# [21] = molecular target: GalNAc(b1-4)GlcNAc(b1-2)Man(a1-3)[GalNAc(b1-4)GlcNAc(b1-2)Man(a1-6)]Man(b1-4)GlcNAc(b1-4)GlcNAc
# How it was run: as §1
# [22] = molecular target: GalNAc(b1-4)GlcNAc(b1-3)GalNAc(b1-4)GlcNAc
# How it was run: as §1
# [23] = molecular target: GalNAc(b1-4)GlcNAc6S
# How it was run: as §1
# [24] = molecular target: GalNAc(b1-6)GalNAc
# How it was run: as §1
# [25] = molecular target: GalNAc3S(b1-4)GlcNAc
# How it was run: as §1
# [26] = molecular target: GalNAc3S(b1-4)GlcNAc3S
# How it was run: as §1
# [27] = molecular target: GalNAc3S(b1-4)[Fuc(a1-3)]GlcNAc
# How it was run: as §1
# [28] = molecular target: GalNAc4S6S(b1-4)GlcNAc
# How it was run: as §1
# [29] = molecular target: GalNAc6S(b1-4)GlcNAc
# How it was run: as §1
# [30] = molecular target: Glc(a1-4)Glc
# How it was run: as §1
# [31] = molecular target: Glc(a1-4)Glc(a1-4)Glc(a1-4)Glc
# How it was run: as §1
# [32] = molecular target: Glc(a1-6)Glc(a1-6)Glc
# How it was run: as §1
# [33] = molecular target: Glc(a1-6)Glc(a1-6)Glc(a1-6)Glc
# How it was run: as §1
# [34] = molecular target: Glc(b1-4)Glc
# How it was run: as §1
# [35] = molecular target: Glc(b1-6)Glc
# How it was run: as §1
# [36] = molecular target: GlcA(b1-3)Gal
# How it was run: as §1
# [37] = molecular target: GlcA(b1-3)GlcNAc
# How it was run: as §1
# [38] = molecular target: GlcA(b1-6)Gal
# How it was run: as §1
# [39] = molecular target: GlcA3S(b1-3)Gal(b1-4)GlcNAc(b1-2)Man
# How it was run: as §1
# [40] = molecular target: GlcA3S(b1-3)Gal(b1-4)GlcNAc(b1-3)Gal(b1-4)Glc
# How it was run: as §1
# [41] = molecular target: GlcNAc(a1-3)Gal(b1-4)GlcNAc
# How it was run: as §1
# [42] = molecular target: GlcNAc(a1-4)Gal(b1-3)GlcNAc
# How it was run: as §1
# [43] = molecular target: GlcNAc(a1-4)Gal(b1-4)GalNAc
# How it was run: as §1
# [44] = molecular target: GlcNAc(a1-4)Gal(b1-4)GlcNAc
# How it was run: as §1
# [45] = molecular target: GlcNAc(a1-4)Gal(b1-4)GlcNAc(b1-3)Gal(b1-4)Glc
# How it was run: as §1
binder,measurement,setting,value
"HPA (Helix pomatia), Q2F1K8 (protein) MQAFYSGLLLLCVVAFAAAQRVQSGKIDCGNDAGWAKVPSDDPGRDNTRELAKNITFASPYCRPPVVLLSITQLDVEQSQNLRVIARLYSVSPTGFKASCYTWHNTKVYSMSISWISIENY",glycan array binding signal (z-score),[1],-0.422
same,glycan array binding signal (z-score),[2],-0.498
same,glycan array binding signal (z-score),[3],-0.301
same,glycan array binding signal (z-score),[4],-0.219
same,glycan array binding signal (z-score),[5],-0.345
same,glycan array binding signal (z-score),[6],-0.261
same,glycan array binding signal (z-score),[7],-0.503
same,glycan array binding signal (z-score),[8],2.85
same,glycan array binding signal (z-score),[9],3.28
same,glycan array binding signal (z-score),[10],3.71
same,glycan array binding signal (z-score),[11],7.34
same,glycan array binding signal (z-score),[12],-0.206
same,glycan array binding signal (z-score),[13],-0.169
same,glycan array binding signal (z-score),[14],-0.126
same,glycan array binding signal (z-score),[15],-0.138
same,glycan array binding signal (z-score),[16],0.839
same,glycan array binding signal (z-score),[17],-0.402
same,glycan array binding signal (z-score),[18],-0.278
same,glycan array binding signal (z-score),[19],-0.188
same,glycan array binding signal (z-score),[20],-0.286
same,glycan array binding signal (z-score),[21],1.57
same,glycan array binding signal (z-score),[22],-0.371
same,glycan array binding signal (z-score),[23],-0.346
same,glycan array binding signal (z-score),[24],-0.374
same,glycan array binding signal (z-score),[25],-0.366
same,glycan array binding signal (z-score),[26],-0.403
same,glycan array binding signal (z-score),[27],-0.287
same,glycan array binding signal (z-score),[28],-0.399
same,glycan array binding signal (z-score),[29],-0.44
same,glycan array binding signal (z-score),[30],-0.227
same,glycan array binding signal (z-score),[31],-0.19
same,glycan array binding signal (z-score),[32],-0.247
same,glycan array binding signal (z-score),[33],-0.102
same,glycan array binding signal (z-score),[34],-0.253
same,glycan array binding signal (z-score),[35],-0.179
same,glycan array binding signal (z-score),[36],-0.313
same,glycan array binding signal (z-score),[37],-0.243
same,glycan array binding signal (z-score),[38],-0.158
same,glycan array binding signal (z-score),[39],-0.426
same,glycan array binding signal (z-score),[40],-0.351
same,glycan array binding signal (z-score),[41],2.04
same,glycan array binding signal (z-score),[42],0.871
same,glycan array binding signal (z-score),[43],1.29
same,glycan array binding signal (z-score),[44],0.726
same,glycan array binding signal (z-score),[45],0.93
